Assay: soluble on expression in E. coli; label from the status in PepcDB or PDB records

Row | Sequence | soluble on expression in E. coli
1 | MKLLEQIEKWAAETPDQTAFVWRDAKITYKQLKEDSDALAHWISSEYPDDRSPIMVYGHMQPEMIINFLGCVKAGHAYIPVDLSIPADRVQRIAENSGAKLLLSATAVTVTDLPVRIVSEDNLKDIFFTHKGNTPNPEHAVKGDENFYIIYTSGSTGNPKGVQITYNCLVSFTKWAVEDFNLQTGQVFLNQAPFSFDLSVMDIYPSLVTGGTLWAIDKDMIARPKDLFASLEQSDIQVWTSTPSFAEMCLMEASFSESMLPNMKTFLFCGEVLPNEVARKLIERFPKATIMNTYGPTEATVAVTGIHVTEEVLDQYKSLPVGYCKSDCRLLIMKEDGTIAPDGEKGEIVIVGPSVSVGYLGSPELTEKAFTMIDGERAYKTGDAGYVENGLLFYNGRLDFQIKLHGYRMELEEIEHHLRACSYVEGAVIVPIKKGEKYDYLLAVVVPGEHSFEKEFKLTSAIKKELNERLPNYMIPRKFMYQSSIPMTPNGKVDRKKLLSEVTALEHHHHHH | soluble
2 | MSVDPACPQSLPCFEASDCKESSPMPVICGPEENYPSLQMSSAEMPHTETVSPLPSSMDLLIQDSPDSSTSPKGKQPTSAENSVAKKEDKVPVKKQKTRTVFSSTQLCVLNDRFQRQKYLSLQQMQELSNILNLSYKQVKTWFQNQRMKSKRWQKNNWPKNSNGVTQKASAPTYPSLYSSYHQGCLVNPTGNLPMWSNQTWNNSTWSNQTQNIQSWSNHSWNTQTWCTQSWNNQAWNSPFYNCGEESLQSCMQFQPNSPASDLEAALEAAGEGLNVIQQTTRYFSTPQTMDLFLNYSMNMQPEDV | not soluble

Source: the DeepSol protein solubility set
